This is an account of results in PubChem BioAssay AID1963443 (Molecular Pharmacology Branch, DTP, NCI, 2024).

This assay concerns MDA-MB-231 complex spheroids, growth inhibition. The experiment in a line: Anticancer human tumor MDA-MB-231 cell line growth inhibition [Asc].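 Further: spheroids exposed to compounds for 7 days.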 The following applies: stronger effect = lower value. As for the experimental part:
Multicellular complex tumor spheroid response to apoptosis pathway targeting inhibitors Alrizomadlin, Pelcitoclax, and Dasminapant in combination with a variety of drugs and investigational agents in selected tumor cell lines
The MDM2 inhibitor alrizomadlin, the Bcl-2/Bcl-xL inhibitor pelcitoclax, and the IAPs inhibitor dasminapant were evaluated both individually and in combination with standard of care and investigational anticancer small molecules within a complex spheroid model of solid tumors. . Complex spheroids include a stromal component modeled by human endothelial cells (HUVEC) and fibroblasts modeled by human mesenchymal stem cells (MSCs). The concentration ranges selected for each drug and investigational agent were based upon clinically achievable concentrations if the clinical Cmax of the agent was known.
Compounds. The drugs and investigational agents: alrizomadlin (APG-115; NSC831270), pelcitoclax (APG-1252; NSC835773), dasminapant (APG-1387;NSC834197), TAK-243 (NSC785004), copanlisib (NSC809693), olaparib (NSC753686), talazoparib (NSC767125), cobimetinib (NSC 768068), eltanexor (KPT-8602, NSC 794443), abemaciclib (NSC 768073), sotorasib (NSC818433), adagrasib (NSC 831453), MRTX-1133 (NSC 836407), Iadademestat (ORY1001, NSC 806812), and RMC-4630 (NSC839698), were obtained from the NCI Developmental Therapeutics Program Chemical Repository. The FDA-approved anticancer drug set is available from the Developmental Therapeutics Program at https://dtp.cancer.gov/organization/dscb/obtaining/available plates.htm. […] The stock solutions were prepared in dimethyl sulfoxide (DMSO, Sigma-Aldrich, St. Louis, MO, cat. D2650) at 800-fold the tested concentration and stored at -70 degrees C prior to their use. All drugs and investigational agents were tested over a range starting from a high concentration at or near the clinical Cmax and decreasing in half-log increments. If the clinical Cmax for an agent had not been determined, the highest concentration tested was 10 microM.
The patient-derived cancer (PDC) cell lines include five colon adenocarcinomas: 186277-243-T-J2-PDC, 616215-338-R-J1-PDC, 439559-082-T-J2-PDC, 463943-066-T-J2-PDC, and 519858-162-T-J1-PDC; three pancreatic carcinomas: 323965-272-R-J2-PDC, 521955-158-R6-J3-PDC, and 521955-158-R2-J5-PDC; two uterine sarcomas: 327498-152-R-J2-PDC and 993429-296-R-J1-PDC; two rhabdomyosarcomas: 755483-174-R-J1-PDC and 772245-204-R-J1-PDC; two soft tissue sarcomas: 126254-015-R-J1-PDC and 494315-158-R-J1-PDC; two malignant fibrous histiocytomas: 317291-083-R-J1-PDC and 596521-263-R-J1-PDC; two breast carcinomas: 171881-019-R-J1-PDC and 885512-296-R-J2-PDC; and one ovarian carcinoma: 6556581-035-R-J-PDC were obtained from the NCI PDMR, (https://pdmr.cancer.gov). […]

The structures appear in SMILES notation. Not every entry of the source has a single result; some have several. The list is limited to them. The source may hold further records. Values given together repeat one measurement across runs, samples, wells, individuals or studies. Signs of the kind (2×) stand for listed records that agree. Dates in brackets are months of testing.

As to `CCN1C(C(=O)NC23CCC(C(=O)O)(CC2)CC3)C(c2cccc(Cl)c2F)C2(C(=O)Nc3cc(Cl)ccc32)C12CCCCC2` (centres undefined), for the setting “compound alone 3 µM”, the viability, T/C is 101 (2×), 104 (2×), 105, 107, 92.4, 98.8, 97.8, 97.2, 102, 96.5, 96.3, 109, 127%.
Regarding `O=C(c1cc(Cc2n[nH]c(=O)c3ccccc23)ccc1F)N1CCN(C(=O)C2CC2)CC1`, the viability, T/C (compound alone 10 µM) is given as 65.7%, 72.9%, 6.29%.
For `CNC(C)C(=O)NC1CN(S(=O)(=O)c2cccc(S(=O)(=O)N3CCC4CCC(C(=O)NC(c5ccccc5)c5ccccc5)N4C(=O)C(NC(=O)C(C)NC)C3)c2)CCC2CCC(C(=O)NC(c3ccccc3)c3ccccc3)N2C1=O` (centres undefined), the viability, T/C runs as follows: (compound alone 0.316 µM) 1.17, 0.93, 1.02, 1.27, 1.11, 0.94, 0.81, 1.06, 2.1, 1.66, 0.86, 1.13, 1.88% [2022-10] and 107% [2022-11]; (compound alone 1 µM) 0.97 (2×), 1.13, 1.1, 1.61, 1.29, 1.26, 1.21, 1.17, 0.98, 0.99, 1.31, 2.07% [2022-10] and 111% [2022-11].
